Reference: article PMC4336329 (PLoS ONE, 2015)
About 2,200 (0.71%) of roughly 310,000 compounds showed an effect of 50% or more. The effect is printed as a negative number. Some of the results follow.

molecular target: human ether-à-go-go-related gene (hERG) potassium channel (human, UniProt Q12809); assay: primary screen, population patch clamp on CHO cells stably expressing hERG
Protocol: Briefly, Chinese hamster ovary (CHO) cells stably expressing the hERG channel were dislodged from tissue culture flasks and dispensed into PPC plates. […] During the recording, background leak currents were estimated by a 100 ms step to -80 mV from an initial holding potential of -70 mV and subtracted from the subsequent current measurement. The campaign was conducted in two phases using slight differences in recording protocol. In the first phase, the initial voltage pulse used a 100 ms step to -30 mV from a holding potential of -70 mV, a 2 s conditioning step to +25 mV, and a 2 s test step to -30 mV. During the second phase of the screen, the potential during the conditioning step was raised to +45 mV. In both phases of the campaign, a secondary voltage pulse was applied using the same parameters as the second phase initial pulse. The initial and secondary pulses were applied in the absence of compound, and upon application of 1 μM and 10 μM test concentrations. Small molecule effects on hERG current density were quantified by […].

Chain of human ether-à-go-go-related gene (hERG) potassium channel (Q12809 whole entry, looked up): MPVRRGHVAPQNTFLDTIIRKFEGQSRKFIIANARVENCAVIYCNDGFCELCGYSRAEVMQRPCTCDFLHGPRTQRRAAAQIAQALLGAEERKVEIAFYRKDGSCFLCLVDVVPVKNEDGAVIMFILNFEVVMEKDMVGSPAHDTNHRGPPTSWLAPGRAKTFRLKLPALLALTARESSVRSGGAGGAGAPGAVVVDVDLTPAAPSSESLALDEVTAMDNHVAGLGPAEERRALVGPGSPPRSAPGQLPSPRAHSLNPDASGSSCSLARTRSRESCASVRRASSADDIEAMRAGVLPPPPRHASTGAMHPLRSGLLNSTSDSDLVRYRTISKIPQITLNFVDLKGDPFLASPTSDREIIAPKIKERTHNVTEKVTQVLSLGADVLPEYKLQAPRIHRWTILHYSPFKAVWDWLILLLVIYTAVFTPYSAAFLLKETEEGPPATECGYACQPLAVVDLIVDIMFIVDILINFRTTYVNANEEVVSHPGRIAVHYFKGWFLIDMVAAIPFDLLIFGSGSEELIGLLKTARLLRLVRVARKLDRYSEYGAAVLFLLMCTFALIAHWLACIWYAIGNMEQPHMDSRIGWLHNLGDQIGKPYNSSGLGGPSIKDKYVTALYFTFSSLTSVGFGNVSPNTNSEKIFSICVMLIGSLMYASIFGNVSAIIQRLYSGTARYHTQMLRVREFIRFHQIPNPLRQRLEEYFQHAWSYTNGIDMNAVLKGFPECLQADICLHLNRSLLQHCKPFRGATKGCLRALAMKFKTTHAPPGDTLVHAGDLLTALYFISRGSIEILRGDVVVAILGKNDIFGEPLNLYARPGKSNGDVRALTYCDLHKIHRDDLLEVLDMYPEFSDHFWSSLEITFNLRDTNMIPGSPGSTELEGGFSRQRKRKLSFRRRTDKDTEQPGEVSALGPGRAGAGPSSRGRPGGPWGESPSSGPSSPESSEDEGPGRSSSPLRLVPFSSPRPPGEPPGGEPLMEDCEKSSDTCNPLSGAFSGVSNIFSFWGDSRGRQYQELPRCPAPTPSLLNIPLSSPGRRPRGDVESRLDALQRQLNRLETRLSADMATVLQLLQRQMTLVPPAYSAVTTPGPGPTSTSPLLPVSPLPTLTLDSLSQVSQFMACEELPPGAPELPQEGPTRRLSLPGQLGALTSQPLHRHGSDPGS

Row | Structure (SMILES) | hERG current change (%, negative = inhibition) at 1uM
1 | N#CCC(=O)Nc1ccc(C(=O)OCC(=O)NNC(=O)c2cccs2)cc1 | -11.9%
2 | Cc1cc(SCC(=O)OCC(=O)NC(C)c2ccccc2)c(C)cc1Br (stereo not drawn) | 17.4%
3 | CCOC(=O)c1oc2ccc(S(=O)(=O)N3CCOCC3)cc2c1C | -5.18%
4 | O=C(Cc1nc(-c2ccc([N+](=O)[O-])cc2)cs1)Nc1ccccc1 | -2.73%
5 | COc1ccc(C(=O)CC(=O)C(=O)Nc2cc(C)ccc2C)cc1 | 5.04%
6 | CNS(=O)(=O)c1cccc(C(=O)OCc2cc(Cl)cc3c2OCOC3)c1 | 2.49%
7 | CSC1=NC(C)N2C(SC)=NC(C)N12 (stereo not drawn) | 15.5%
8 | COCCn1c(SCC(=O)NCc2ccc3c(c2)OCO3)nnc1-c1c[nH]c2ccccc12 | 4.01%
9 | Cn1cc(C(=O)c2ccccc2)cc1-c1nc2ccccc2n1C | -0.481%
10 | Cc1cn(C(=O)c2ccccc2)c(=S)n1-c1ccc(Br)cc1 | 18.8%
11 | Cc1nc(CN2CCN(Cc3nc(C(c4ccccc4)c4ccccc4)no3)CC2)cs1 | -4.18%
12 | CC(C1CC1)N(C(=O)c1ccccc1O)c1ccccc1 (stereo not drawn) | 11.1%
13 | COc1ccc(NC(=S)NNC(=O)c2cccnc2)cc1OC | 14.7%
14 | COCc1c(C(=O)N/N=C(/C)c2cccs2)nnn1-c1nonc1N | 18.2%
15 | O=C(N/N=C/c1ccccc1F)NC12CC3CC(CC(C3)C1)C2 | 15.6%
16 | CCCCN=CC1=C(O)CC(c2ccccc2)CC1=O (stereo not drawn) | 9.46%
17 | Cl.OC(COc1ccccc1F)CN1CCC(Cc2ccccc2)CC1 (stereo not drawn) | -55.7%
18 | Nc1nc(CN2CCN(C(c3ccccc3)c3ccccc3)CC2)nc(Nc2ccccc2)n1 | 10.2%
19 | Cc1ccc2oc(=O)cc(CN3CCOCC3)c2c1 | 3.25%
20 | COc1ccc2nc(/N=C(\N)NC(=O)C(C)(C)C)nc(C)c2c1 | 3.44%
21 | O=C(CC(Nc1ccccc1)C(=O)O)c1ccccc1 (stereo not drawn) | 11.2%
22 | COC(=O)c1scc(S(C)(=O)=O)c1-n1cccc1 | 9.69%
23 | O=C(c1ccc(Br)cc1)N1CCN(S(=O)(=O)c2ccccc2)CC1 | -5.81%

Row | Structure (SMILES) | hERG current change (%, negative = inhibition) at 1uM
24 | N#Cc1ccsc1NC(=O)CN1CCN(Cc2ccccc2)CC1 | -41.1%
25 | CCC1CCCCN1Cc1nc2c(c(=O)n(C)c(=O)n2C)n1CCCc1ccccc1 (stereo not drawn) | 6.66%
26 | Cc1ccccc1CCNC(=O)C1CC(O)CN1C(=O)Nc1ccccc1 (stereo not drawn) | 9.44%
27 | COc1cccc(CNc2nc3nc(C)c(Cl)c(=O)n3[nH]2)c1 | -0.509%
28 | CCOC(=O)NC(=O)CSc1nc2ccc(C)cc2[nH]1 | 14.2%
29 | COc1ccccc1NCC(=O)c1ccc(C)c(C)c1 | 13.9%
30 | CC(/C=N/n1c(C2CCCCC2)n[nH]c1=S)=C\c1ccccc1 | 15.1%
31 | O=C(CN1CCOc2ccccc21)NCc1ccco1 | 6.69%
32 | COc1ccc(Cl)cc1S(=O)(=O)N1CCCC(C(=O)NCc2ccccc2)C1 (stereo not drawn) | 19.1%
33 | O=C(CCC(=O)Nc1ccccc1)NNC(=O)c1ccccc1Cl | 12.2%
34 | Cc1cc(C)c2c(n1)sc1c(=O)n(-c3ccccc3)c(=O)[nH]c12 | 20%
35 | O=C(CNC(=O)c1ccncc1)N/N=C/c1ccccc1[N+](=O)[O-] | 9.95%
36 | COc1ccc(NC(=O)C2CCCN(S(=O)(=O)c3cccc4nonc34)C2)cc1OC (stereo not drawn) | 9.19%
37 | Cc1ccc(-c2nnc(N3CCN(S(C)(=O)=O)CC3)c3ccccc23)cc1 | 4.73%
38 | CCC(C)n1c(O)c(C=NC(C)c2ccccc2)c(=O)[nH]c1=S (stereo not drawn) | 19.7%
39 | Cc1csc(=O)n1CCC(=O)OCC(=O)Nc1cc(Cl)ccc1[N+](=O)[O-] | 2.36%
40 | O=C(Nc1ccc(Cl)cc1Cl)NC1CCCC1 | 11.9%
41 | CC1CCC2(CC1)NC(=O)N(NC(=O)c1cccc(N(C)C)c1)C2=O (stereo not drawn) | 7.77%
42 | COc1ccc(CCC2(C)NC(=O)NC2=O)cc1 (stereo not drawn) | 4.47%
43 | CC(C)CCn1c(SCCN2CCOCC2)nc2c1c(=O)[nH]c(=O)n2C | 1.89%
44 | O=C(N/N=C\c1cccs1)c1sccc1-n1cccc1 | 12.7%
45 | Cc1ccc(N=C2C(=S)N(c3ccc(C)cc3)C(=N)N2/N=C/c2ccc(Cl)cc2)cc1 | 2.05%
